Data taken from the supplement of paper PMC10723795.
Structures can show the parent of a compound that is named as a salt. The list shows a part of the results.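 How the source made its calls: active = more than 2 SD below the DMSO mean: under 0.85 at 10 µM or 0.885 at 1 µM; inactive = the rest.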 Most values come without repeats; read them as rough.

Test system: RPE1
Assay: nucleolar normality score relative to DMSO (fraction of DMSO control); RPE1 is a non-cancer human cell line; higher = more normal nucleoli (less nucleolar stress)
Conditions: 24 h
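Further: fixed cells immunolabelled for nucleolin and UBF, 40 image fields per well in 384-well plates, per-cell score = nucleolin nucleolar/nucleoplasm intensity ratio divided by the matching UBF ratio.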

Compound	nucleolar normality score (1 µM)	nucleolar normality score (10 µM)
CC(Nc1nc(N2CCCC2)nc2ccccc12)c1ccccc1 (stereo unspecified) [Importazole]	inactive: 1.03	inactive: 1.05
Nc1cccc2c1CN(C1CCC(=O)NC1=O)C2=O (stereo unspecified) [Lenalidomide (CC-5013)]	active: 0.864	inactive: 1.02
CCCCCCCC(=O)CCc1ccc(O)c(OC)c1 [6-Paradol]	inactive: 1.08	inactive: 1.05
Ac-PHSCN-NH2	inactive: 1.02	inactive: 1.07
C[C@@H]1CN(CC(=O)Nc2ccc3c(c2)Cc2cccc(-c4cc(=O)cc(N5CCOCC5)o4)c2S3)C[C@H](C)O1	inactive: 1.01	inactive: 0.98
C[C@]12CC[C@@H]3c4ccc(O)cc4CC[C@H]3[C@@H]1C[C@@H](O)[C@@H]2O [Estriol]	inactive: 0.967	inactive: 0.853
Cc1nc(N)sc1-c1ccnc(Nc2ccc(N3CCOCC3)cc2)n1	active: 0.881	inactive: 0.864
C=CC(=O)N1CCC[C@@H](n2nc(-c3ccc(Oc4ccccc4)cc3)c3c(N)ncnc32)C1	inactive: 1.05	inactive: 0.898
CC(=O)N1CCN(CCOc2ccc(C3CCN(C4=Nn5c(nnc5C(F)(F)F)CC4)CC3)cc2)CC1	inactive: 0.997	inactive: 0.858
CCN(c1cc(-c2ccc(CN3CCOCC3)cc2)cc(C(=O)NCc2c(C)cc(C)[nH]c2=O)c1C)C1CCOCC1 [Tazemetostat (EPZ-6438)]	inactive: 1.01	inactive: 0.916
CC(CCC(=O)NCCS(=O)(=O)O)C1CCC2C3C(O)CC4CC(O)CCC4(C)C3CCC12C (stereo unspecified) [Sodium Tauroursodeoxycholate (TUDC)]	inactive: 0.922	inactive: 1.01
COC[C@H](NC(=O)c1cnc(C)s1)C(=O)N[C@@H](COC)C(=O)N[C@@H](Cc1ccccc1)C(=O)[C@@]1(C)CO1 [Oprozomib (ONX 0912)]	active: 0.842	active: 0.839
Cc1cc(Nc2nc(N[C@@H](C)c3ncc(F)cn3)ncc2Cl)[nH]n1	inactive: 0.97	inactive: 1.01
C[C@H]1O[C@@H](O[C@H]2CC[C@@]3(C)[C@@H](CC[C@]4(C)[C@@H]3C=C[C@]35OC[C@@]6(CCC(C)(C)C[C@H]63)[C@H](O)C[C@]54C)[C@]2(C)CO)[C@H](O)[C@@H](O[C@@H]2O[C@H](CO)[C@@H](O)[C@H](O)[C@H]2O)[C@H]1O [Saikosaponin D]	inactive: 1.04	inactive: 0.975
COc1cc(/C=C/c2ccc(O)c(O)c2)cc(OC)c1 [3'-Hydroxypterostilbene]	inactive: 1.02	inactive: 1.09
Fc1cc(-c2cccc3ncc(-c4cnn(C5CCNCC5)c4)nc23)cc(F)c1CN1CCOCC1	inactive: 1.02	inactive: 0.983
O=C(NCC(=O)N1CCCC1)Nc1ccc2cnccc2c1	inactive: 1.03	inactive: 1.06
CN(C)CCSSCCNC(=O)C1CCN(C(=O)CSc2ccc(Cl)cc2)CC1	inactive: 0.997	inactive: 1.02
CC1(C)NC(=O)N(c2ccc([N+](=O)[O-])c(C(F)(F)F)c2)C1=O [Nilutamide]	inactive: 0.987	inactive: 0.891
Cc1[nH]c(/C=C2\C(=O)Nc3ccc(S(=O)(=O)N(C)c4cccc(Cl)c4)cc32)c(C)c1C(=O)N1CCN(C)CC1	inactive: 1.06	inactive: 1.07

Compound	nucleolar normality score (1 µM)	nucleolar normality score (10 µM)
CN(C)Cc1ccc(-c2nc3cccc4c3n2CCNC4=O)cc1	inactive: 0.945	inactive: 1.02
Cc1nc(NC(=O)N2CCC[C@H]2C(N)=O)sc1-c1ccnc(C(C)(C)C(F)(F)F)c1 [Alpelisib (BYL719)]	inactive: 1.04	inactive: 0.906
Nc1ncnc2c1c(-c1cnc3[nH]ccc3c1)nn2C1CCCC1	active: 0.868	active: 0.629
CCC(C)SSc1ncc[nH]1 (stereo unspecified)	inactive: 1.02	inactive: 1.09
Cc1coc2c1C(=O)C(=O)c1c-2ccc2c(C)cccc12 [Tanshinone I]	inactive: 1.02	inactive: 0.897
Cc1c(CN2CCC(Nc3ncnc4sc(CC(F)(F)F)cc34)CC2)ccc2c1cc(C#N)n2Cc1cn[nH]c1	inactive: 0.976	inactive: 0.958
COc1cc(Nc2nc3ccccc3nc2NS(=O)(=O)c2ccc(NC(=O)c3ccc(C)c(OC)c3)cc2)cc(OC)c1	inactive: 1.02	inactive: 1.12
Cc1ccccc1-n1c(Cn2nc(-c3cccc(O)c3)c3c(N)ncnc32)nc2cccc(C)c2c1=O	inactive: 1.09	inactive: 1.1
CCNC(=O)C#Cc1ccc2c(C(=Nc3ccc(CN(C)C)cc3)c3ccccc3)c(O)[nH]c2c1	active: 0.774	active: 0.537
C=C1C(=O)O[C@@H]2C[C@@]3(C)CCC[C@H](C)C3=C[C@H]12 [Alantolactone]	inactive: 1.11	inactive: 1.07
C[C@@H](CN1CC(=O)NC(=O)C1)N1CC(=O)NC(=O)C1 [Dexrazoxane]	active: 0.533	inactive: 1.01
Cn1nccc1Nc1nccc(-c2ccn([C@H](CO)c3ccc(Cl)c(F)c3)c(=O)c2)n1	inactive: 0.98	inactive: 1
O=S(=O)(O)CCS [Mesna]	inactive: 1.02	inactive: 1.13
C=CC(=O)N1CC/C(=C\c2ccc(F)c([N+](=O)[O-])c2)C(=O)/C(=C/c2ccc(F)c([N+](=O)[O-])c2)C1	inactive: 1.02	inactive: 1.07
Cc1cccc(-c2[nH]c(CNc3ccccc3F)nc2-c2ccc3ncnn3c2)n1 [Vactosertib ?(TEW-7197)]	inactive: 0.977	inactive: 1.03
CCCS(=O)(=O)Nc1ccc(F)c(C(=O)c2c[nH]c3ncc(-c4ccc(Cl)cc4)cc23)c1F [Vemurafenib (PLX4032, RG7204)]	inactive: 1.1	inactive: 1.08
Cc1nnc(C(C)C)n1C1C[C@H]2CC[C@@H](C1)N2CC[C@H](NC(=O)C1CCC(F)(F)CC1)c1ccccc1 (stereo in doubt) [Maraviroc]	inactive: 1.08	inactive: 1.1
Cn1c(=O)cc(N2CCC[C@@H](N)C2)n(Cc2ccccc2C#N)c1=O [Alogliptin]	inactive: 1.05	inactive: 1.08
CC1=C[C@]2(O)O[C@@]3(CC2=C(C)C)[C@@H](C)CC[C@@H]13 [Curcumenol]	inactive: 1.05	inactive: 0.919
COc1ccc(-c2cc(=O)c3c(O)cc(O[C@@H]4O[C@H](CO[C@@H]5O[C@@H](C)[C@H](O)[C@@H](O)[C@H]5O)[C@@H](O)[C@H](O)[C@H]4O)cc3o2)cc1O [Diosmin]	inactive: 1	inactive: 1.08

Compound	nucleolar normality score (1 µM)	nucleolar normality score (10 µM)
COC1=C2C[C@@H](C)C[C@H](OC)[C@H](O)[C@@H](C)/C=C(\C)[C@H](OC(N)=O)[C@@H](OC)/C=C\C=C(/C)C(=O)NC(=CC1=O)C2=O [Geldanamycin]	active: 0.403	active: 0.367
CCCCNc1ncc2c(-c3ccc(CN4CCN(C)CC4)cc3)cn([C@H]3CC[C@H](O)CC3)c2n1	active: 0.882	active: 0.63
CC(=O)NC1C(OC2C(C(=O)O)OC(OC3C4COC(O4)C(NS(=O)(=O)O)C3O)C(O)C2O)OC(CO)C(OC2CC(C(=O)O)C(OC3OC(COS(=O)(=O)O)C(OC4OC(C(=O)O)=CC(O)C4O)C(O)C3NC(C)=O)C(O)C2O)C1C (stereo unspecified) [Enoxaparin sodium]	inactive: 1.02	inactive: 1.02
CNC(=O)Nc1ccc(-c2nc(N3CC4CCC(C3)O4)c3cnn(C4CCC5(CC4)OCCO5)c3n2)cc1	active: 0.64	active: 0.446
Cn1cc(-c2ccc3nnc(C(F)(F)c4ccc5ncccc5c4)n3n2)cn1	inactive: 1.06	inactive: 1.04
CCC(CC)CC1(C(=O)Nc2ccccc2SC(=O)C(C)C)CCCCC1	inactive: 0.987	inactive: 0.885
CCCCCCCCc1ccc(CCC(N)(CO)CO)cc1 [Fingolimod (FTY720) HCl]	inactive: 1.03	inactive: 0.891
H-RKDVY-OH [Thymopentin]	inactive: 0.983	inactive: 0.873
C[C@]12CC[C@@H]3c4ccc(O)cc4CC[C@H]3[C@@H]1CCC2=O [Estrone]	inactive: 1	inactive: 1
CN1CCC(COc2cnc(-c3cccc(Cn4nc(-c5cccc(C#N)c5)ccc4=O)c3)nc2)CC1	inactive: 1.04	active: 0.589
CC(C)c1cc(C(=O)N2Cc3ccc(CN4CCN(C)CC4)cc3C2)c(O)cc1O	active: 0.403	active: 0.347
CC1Oc2cc(cnc2N)-c2c(nn(C)c2C#N)CN(C)C(=O)c2ccc(F)cc21 (stereo unspecified)	inactive: 0.97	inactive: 0.987
OC1CCC(Oc2cccc3cnc(Nc4ccc5nc[nH]c5c4)nc23)CC1 (stereo unspecified)	inactive: 0.95	inactive: 1.07
O=NN(CCCl)C(=O)NC1CCCCC1 [Lomustine]	inactive: 0.966	inactive: 0.999
C=CC(=O)N1CCN(CCCn2c(=O)c(-c3c(Cl)c(OC)cc(OC)c3Cl)cc3cnc(NC)nc32)CC1	inactive: 1.07	inactive: 1.01
O=C(O)CCn1c2c(c3ccccc31)C[C@H](NS(=O)(=O)c1ccc(F)cc1)CC2 [Ramatroban]	inactive: 1.1	inactive: 1.05
Cc1c[nH]c2nc(Nc3ccc(N4CCN(C)CC4)c(F)c3)nc(-c3cccc(CC#N)c3)c12	inactive: 0.926	inactive: 0.882
c1cn2cc(-c3ccc4cn[nH]c4c3)nc(Nc3ccc(N4CCOCC4)cc3)c2n1 [Entospletinib (GS-9973)]	inactive: 1.03	inactive: 1.06
